We go through 56 variants from the RNAGym collection of RNA variant scans (doi:10.7554/elife.90254).

The source gives no read counts; variants with many changes may rest on few reads.

The chains are these.
B1: LINE1-mini (parent)
chain: GGCAGAGCUCAACACAGCGUGGCAAAGUGGCUGUGGCUAGACUGCC

The variants in the data set derive from B1. The experiment in a line: self-cleavage, relative activity (ratio to wild type); higher = more cleavage; in vitro, sequencing; the parent is a self-cleaving ribozyme.
For the variant GGCAGAGCUCAACACAGCGUGGCCAACUUUCUGUGGCUAGAUUGCC [A24C G27C G29U G30U C42U], the self-cleavage was 0.09. The result for GGCAGAGCUCAACACAGCGUGGCCAAGUGGAUGUGGCUAGACUGAC [A24C C31A C45A] reads 0.23; that for GGCAGAGCUCAACACAGCGUGGUAAAGUGACUGUGGCUAUAAUGCC [C23U G30A G40U C42A], 0.05.

For the variant GGCAGAGCUCAACACAGCGUGGCCAAGUGGUUGGGGCUAGACUGCC [A24C C31U U34G], the self-cleavage was 0.08. The figure for GGCAGAGCUCAACACAGCGUGGUAAAGUGGCUCUGGCUAGACUGCU [C23U G33C C46U] is 0.03; for GGCAGAGCUCAACACAGCGUGGCCUAGUGGCUGUGGCUAGACUACC [A24C A25U G44A] it is 0.14.

Take GGCAGAGCUCAACACAGCGUGGUAAAGUGACUGUGGCUAGACAGCC [C23U G30A U43A]: the self-cleavage was found to be 0.27.

In the case of GGCAGAGCUCAACACAGCGUGGUAAAGUGCCUGUAGCUUGACUGCC [C23U G30C G35A A39U], the self-cleavage was 0.04. The figure for GGCAGAGCUCAACACAGCGUGGCCAAGUGGCUAUGGCUAGACUGCA [A24C G33A C46A] is 0.1. As to GGCAGAGCUCAACACAGCGUGGUAAAGUAGCUGUGGCUAGACAGCC [C23U G29A U43A], the self-cleavage was determined as 0.71.

As to GGCAGAGCUCAACACAGCGUGGCCAAGUGGAUGUGAGUAGACCGCC [A24C C31A G36A C37G U43C], the self-cleavage amounted to 0.03.

In the case of GGCAGAGCUCAACACAGCGUGGCCAAGUGGUUGUGGCUAGGCUGCC [A24C C31U A41G], the self-cleavage was 0.09. As to GGCAGAGCUCAACACAGCGUGGCGAAGUGGAUGUGGCUUGACUACC [A24G C31A A39U G44A], the self-cleavage is 0.02. As to GGCAGAGCUCAACACAGCGUGGUAAAGCGGCUGUCGCUAGAGUGCC [C23U U28C G35C C42G], the self-cleavage is 0.02.

With GGCAGAGCUCAACACAGCGUGGCGAAGUGGUUGUGGAUGGACUGCA [A24G C31U C37A A39G C46A], the self-cleavage is 0.04. The result for GGCAGAGCUCAACACAGCGUGGUAAAGGGGCUGUGGGUAGACUGCC [C23U U28G C37G] reads 0; that for GGCAGAGCUCAACACAGCGUGGUAAAGGGGCUGUGGAUAGACUGCC [C23U U28G C37A], 0.02; that for GGCAGAGCUCAACACAGCGUGGUAAAGUGGCUGUGGCUAGACUACU [C23U G44A C46U], 0.24. With GGCAGAGCUCAACACAGCGUGGCCAAGUGGCUCUGACUAGACUGCC [A24C G33C G36A], the self-cleavage turned out to be 0.03. Take GGCAGAGCUCAACACAGCGUGGUAAAGUGGCCGGGGCUAUACUGCC [C23U U32C U34G G40U]: the self-cleavage is 0.04.

Regarding GGCAGAGCUCAACACAGCGUGGCGAAGUGGUUGUGGCUAGAAUGCC [A24G C31U C42A], the self-cleavage came out at 0.

Turning to GGCAGAGCUCAACACAGCGUGGCGAAGUGGUUGGGCCUAGACUUAC [A24G C31U U34G G36C G44U C45A], the self-cleavage was 0.01. As to GGCAGAGCUCAACACAGCGUGGCCAAGUGGCUUUGACUAGACUGCC [A24C G33U G36A], the self-cleavage stood at 0.03. As for GGCAGAGCUCAACACAGCGUGGCCAAGGGGCUCUGGCUAGACUUCC [A24C U28G G33C G44U], the self-cleavage was found to be 0. The figure for GGCAGAGCUCAACACAGCGUGGCCAAUUGGCUGUGGCUAAACUGCC [A24C G27U G40A] is 0.09; for GGCAGAGCUCAACACAGCGUGGUAAAGUGUCUGUGGCUAAACUGCC [C23U G30U G40A] it is 0.07.

As for GGCAGAGCUCAACACAGCGUGGCCAAGGGGCUGCGGCUAGGCUGAC [A24C U28G U34C A41G C45A], the self-cleavage came out at 0.03. The figure for GGCAGAGCUCAACACAGCGUGGCCAAGUGGCUGUAGCUAGACAGCC [A24C G35A U43A] is 0.02. For GGCAGAGCUCAACACAGCGUGGCCAAGUUGCUGUUGCUAGUCUGCC [A24C G29U G35U A41U], the self-cleavage was found to be 0.03. The figure for GGCAGAGCUCAACACAGCGUGGUAAAGUCUCUGUGGCUAGACUGCC [C23U G29C G30U] is 0.91; for GGCAGAGCUCAACACAGCGUGGCCAACUGGGUGUGGCUAGACUGCC [A24C G27C C31G] it is 0.05; for GGCAGAGCUCAACACAGCGUGGCCAUUUGGCUGUGGCUAGACUGCC [A24C A26U G27U] it is 0.74. The result for GGCAGAGCUCAACACAGCGUGGCGAAGUGGUUUUGGCUAGACUGCC [A24G C31U G33U] reads 0.06. The result for GGCAGAGCUCAACACAGCGUGGCCAAGUGGGUUAGGCUAGACUGCC [A24C C31G G33U U34A] reads 0.03. As for GGCAGAGCUCAACACAGCGUGGCCAAGUGGCUGUUGCUAUACUGCU [A24C G35U G40U C46U], the self-cleavage is 0.07. Take GGCAGAGCUCAACACAGCGUGGCGAAGUGGUUGUGGCCAAACUGCC [A24G C31U U38C G40A]: the self-cleavage was 0.03. The figure for GGCAGAGCUCAACACAGCGUGGCCAAGUGGAUGUGGUUACACUGCC [A24C C31A C37U G40C] is 0.02.

As to GGCAGAGCUCAACACAGCGUGGCCAUGUGGCUGUGGCUAGACUGGC [A24C A26U C45G], the self-cleavage came out at 0.07.

Turning to GGCAGAGCUCAACACAGCGUGGUAAAGUGACUGUGGCUAGACUGCA [C23U G30A C46A], the self-cleavage amounted to 0.09. The result for GGCAGAGCUCAACACAGCGUGGCCAAGUGGCUCUCGAUAGACUGCC [A24C G33C G35C C37A] reads 0.04. The figure for GGCAGAGCUCAACACAGCGUGGUAAAGUGGCUGUUGCUAGACUCCC [C23U G35U G44C] is 0.03; for GGCAGAGCUCAACACAGCGUGGCCAUGUGACUGUGGCUAGAUUGCC [A24C A26U G30A C42U] it is 0.09; for GGCAGAGCUCAACACAGCGUGGCCACGUGGCUGUGCCUAGACUGCC [A24C A26C G36C] it is 0.12. On to GGCAGAGCUCAACACAGCGUGGUAAAGUGGCUGUGGCGAAACUGCC [C23U U38G G40A], for which the self-cleavage turned out to be 0.04.

In the case of GGCAGAGCUCAACACAGCGUGGCGCAGUGGCUGUGGCUAGACACCC [A24G A25C U43A G44C], the self-cleavage turned out to be 0.08.

As for GGCAGAGCUCAACACAGCGUGGCGAAGUGGCUGUGGCUAGAGUGCU [A24G C42G C46U], the self-cleavage is 0.01.

Regarding GGCAGAGCUCAACACAGCGUGGCGAAGUGGCUGUGGCUAGAGUGCG [A24G C42G C46G], the self-cleavage came to 0.01.

With GGCAGAGCUCAACACAGCGUGGCCAAGUGGCUGUGGCUGGACUGUC [A24C A39G C45U], the self-cleavage was determined as 0.13. The result for GGCAGAGCUCAACACAGCGUGGCCAAUUGGCUGUGGCUAGACUGAC [A24C G27U C45A] reads 0.57; that for GGCAGAGCUCAACACAGCGUGGCGGAUUGGCUGUGGCUAGACUGCC [A24G A25G G27U], 0.53; that for GGCAGAGCUCAACACAGCGUGGUAAAGUGGCGGUGGCUAGAUGGCC [C23U U32G C42U U43G], 0. Regarding GGCAGAGCUCAACACAGCGUGGUAAAGUAUCUGUGUCUAGACUGCC [C23U G29A G30U G36U], the self-cleavage is 0.17.

As to GGCAGAGCUCAACACAGCGUGGCCAAGUGGCUUUGGCUAGACUGAC [A24C G33U C45A], the self-cleavage was found to be 0.01. The figure for GGCAGAGCUCAACACAGCGUGGCGAACUGGCUGUUGCUAUACUGCA [A24G G27C G35U G40U C46A] is 0.11; for GGCAGAGCUCAACACAGCGUGGCCAAGUGGCUGUGGCUAUACAGCC [A24C G40U U43A] it is 0.03; for GGCAGAGCUCAACACAGCGUGGCCAAGUGGCAGUGGGUAGACUGCC [A24C U32A C37G] it is 0.
